# Test results reported in patent US20190359693A1.
# Key:
# Experiment in all cases: cell-based or functional assay
# [1] = target: hemagglutinin (HA) of influenza virus B/Brisbane/60/08 (Victoria) (influenza B virus)
# [2] = target: hemagglutinin (HA) of influenza virus B/Florida/04/06 (Yamagata) (influenza B virus)
# [3] = target: hemagglutinin (HA) of influenza virus B/Lee/40 (Old) (influenza B virus)
# [4] = target: hemagglutinin (HA) of influenza virus H1N1 A/California/07/09 (influenza A virus)
# [5] = target: hemagglutinin (HA) of influenza virus H3N2 A/Brisbane/10/07 (influenza A virus)
# [6] = target: hemagglutinin (HA) of influenza virus H3N2 A/HK/1/68-MA (influenza A virus)
# [7] = target: hemagglutinin (HA) of influenza virus H3N2 A/Wisconsin/67/05 (influenza A virus)
# [8] = target: hemagglutinin (HA) of influenza virus H5N1 A/Vietnam/1194/04 (influenza A virus)
# [9] = target: hemagglutinin (HA) of influenza virus H7N3 A/NIBRG/60 (A/mallard/Netherlands/12/00) (influenza A virus)
# [10] = target: hemagglutinin (HA) of influenza virus H7N7 A/PR8 H7N7-NY (influenza A virus)
# [11] = target: hemagglutinin (HA) of influenza A/Aichi/2/68 (H3N2) (influenza A virus)
# [12] = target: hemagglutinin (HA) of influenza A/WSN/33 (H1N1) (influenza A virus)
# [13] = target: hemagglutinin (HA) of influenza B/Brisbane/60/08 (Victoria) (influenza B virus)
# [14] = target: hemagglutinin (HA) of influenza B/Lee/40 (Old) (influenza B virus)
# [15] = target: hemagglutinin (HA) of influenza B/Florida/04/06 (Yamagata) (influenza B virus)
# [16] = target: hemagglutinin (HA) of influenza virus H1N1 A/New Caledonia/20/99 (influenza A virus)
# [17] = target: hemagglutinin (HA) of influenza virus H1N1 A/Puerto Rico/8/34-MA (influenza A virus)
Binder,average neutralization titer [1],average neutralization titer [2],average neutralization titer [3],average neutralization titer [4],average neutralization titer [5],average neutralization titer [6],average neutralization titer [7],average neutralization titer [8],average neutralization titer [9],average neutralization titer [10],Average neutralization titers [11],Average neutralization titers [12],Average neutralization titers [13],Average neutralization titers [14],"ADCC induction (EC50 grade, FcγRIIIa reporter bioassay) [13]","ADCC induction (EC50 grade, FcγRIIIa reporter bioassay) [15]",average neutralization titer [16],average neutralization titer [17]
MD2628 (Fc fusion) EVQLVESGGGLVQPGGSLRLSCAVSISIFDIYAMDWYRQAPGKQRDLVATSFRDGSTNYADSVKGRFTISRDNAKNTLYLQMNSLKPEDTAVYLCHVSLYRDPLGVAGGMGVYWGKGALVTVSSGGGGSGGGGSEVQLVESGGGLVQAGGSLKLSCAASGRTYAMGWFRQAPGKEREFVAHINALGTRTYYSDSVKGRFTISRDNAKNTEYLEMNNLKPEDTAVYYCTAQGQWRAAPVAVAAEYEFWGQGTQVTVSSAAA[gap - human IgG1 Fc]GGGGSGGGGSEVQLVESGGGLVQPGGSLRLSCAATGFTLENKAIGWFRQTPGSEREGVLCISKSGSWTYYTDSMRGRFTISRDNAENTVYLQMDSLKPEDTAVYYCATTTAGGGLCWDGTTFSRLASSWGQGTQVTVSS,117 nM,213 nM,106 nM,3.2 nM,21.3 nM,30.1 nM,22.1 nM,6.3 nM,8.7 nM,15.8 nM,,,,,,,,
MD2629 (Fc fusion) EVQLVESGGGLVQPGGSLRLSCAATGFTLENKAIGWFRQTPGSEREGVLCISKSGSWTYYTDSMRGRFTISRDNAENTVYLQMDSLKPEDTAVYYCATTTAGGGLCWDGTTFSRLASSWGQGTQVTVSSAAA[gap - human IgG1 Fc]GGGGSGGGGSEVQLVESGGGLVQPGGSLRLSCAVSISIFDIYAMDWYRQAPGKQRDLVATSFRDGSTNYADSVKGRFTISRDNAKNTLYLQMNSLKPEDTAVYLCHVSLYRDPLGVAGGMGVYWGKGALVTVSSGGGGSGGGGSEVQLVESGGGLVQAGGSLKLSCAASGRTYAMGWFRQAPGKEREFVAHINALGTRTYYSDSVKGRFTISRDNAKNTEYLEMNNLKPEDTAVYYCTAQGQWRAAPVAVAAEYEFWGQGTQVTVSS,261 nM,73.7 nM,261 nM,5.5 nM,18.4 nM,11 nM,22.3 nM,13.1 nM,10.6 nM,8.1 nM,,,,,,,,
MD2642 (Fc fusion) EVQLVESGGGLVQPGGSLRLSCAVSISIFDIYAMDWYRQAPGKQRDLVATSFRDGSTNYADSVKGRFTISRDNAKNTLYLQMNSLKPEDTAVYLCHVSLYRDPLGVAGGMGVYWGKGALVTVSSGGGGSGGGGSEVQLVESGGGLVQAGGSLKLSCAASGRTYAMGWFRQAPGKEREFVAHINALGTRTYYSDSVKGRFTISRDNAKNTEYLEMNNLKPEDTAVYYCTAQGQWRAAPVAVAAEYEFWGQGTQVTVSS[gap - human IgG1 Fc]GGGGSGGGGSEVQLVESGGGLVQPGGSLRLSCAATGFTLENKAIGWFRQTPGSEREGVLCISKSGSWTYYTDSMRGRFTISRDNAENTVYLQMDSLKPEDTAVYYCATTTAGGGLCWDGTTFSRLASSWGQGTQVTVSSGGGGSGGGGSEVQLVESGGGLVQPGGSLKLSCAASGFTFSTSWMYWLRQAPGKGLEWVSVINTDGGTYYADSVKDRFTISRDNAKDTLYLQMSSLKSEDTAVYYCAKDWGGPEPTRGQGTQVTVSS,,,,,,,,,,,11 nM,4.2 nM,1.5 nM,8.4 nM,,,,
MD2606 (Fc fusion) EVQLVESGGGLVQPGGSLRLSCAVSISIFDIYAMDWYRQAPGKQRDLVATSFRDGSTNYADSVKGRFTISRDNAKNTLYLQMNSLKPEDTAVYLCHVSLYRDPLGVAGGMGVYWGKGALVTVSSGGGGSGGGGSAAA[gap - human IgG1 Fc],,,,,22.1 nM,,27.7 nM,5.8 nM,70 nM,1260 nM,,,,,> 0.5 mg/L,> 0.5 mg/L,,
MD2608 (Fc fusion) EVQLVESGGGLVQPGGSLRLSCAATGFTLENKAIGWFRQTPGSEREGVLCISKSGSWTYYTDSMRGRFTISRDNAENTVYLQMDSLKPEDTAVYYCATTTAGGGLCWDGTTFSRLASSWGQGTQVTVSSGGGGSGGGGSAAA[gap - human IgG1 Fc],,249 nM,,,,,,,,,,,,,< 0.1 mg/L,< 0.1 mg/L,,
MD2610 (Fc fusion) EVQLVESGGGLVQPGGSLKLSCAASGFTFSTSWMYWLRQAPGKGLEWVSVINTDGGTYYADSVKDRFTISRDNAKDTLYLQMSSLKSEDTAVYYCAKDWGGPEPTRGQGTQVTVSSGGGGSGGGGSAAA[gap - human IgG1 Fc],,1.4 nM,,,,,,,,,,,,,< 0.5 mg/L,< 0.5 mg/L,,
MD2601 (Fc fusion) EVQLVESGGGLVQPGGSLRLSCAVSISIFDIYAMDWYRQAPGKQRDLVATSFRDGSTNYADSVKGRFTISRDNAKNTLYLQMNSLKPEDTAVYLCHVSLYRDPLGVAGGMGVYWGKGALVTVSSAAAGGGGSGGGGSGGGGSGGGGSGGGGSGGGGSGGGGSEVQLVESGGGLVQPGGSLRLSCAATGFTLENKAIGWFRQTPGSEREGVLCISKSGSWTYYTDSMRGRFTISRDNAENTVYLQMDSLKPEDTAVYYCATTTAGGGLCWDGTTFSRLASSWGQGTQVTVSSLINLEAAA[gap - human IgG1 Fc],,476 nM,360 nM,,50.9 nM,246 nM,503 nM,16.6 nM,670 nM,> 1000 nM,,,,,,,23.5 nM,9.5 nM
MD2602 (Fc fusion) EVQLVESGGGLVQPGGSLRLSCAVSISIFDIYAMDWYRQAPGKQRDLVATSFRDGSTNYADSVKGRFTISRDNAKNTLYLQMNSLKPEDTAVYLCHVSLYRDPLGVAGGMGVYWGKGALVTVSSAAAGGGGSGGGGSGGGGSGGGGSGGGGSGGGGSGGGGSEVQLVESGGGLVQPGGSLKLSCAASGFTFSTSWMYWLRQAPGKGLEWVSVINTDGGTYYADSVKDRFTISRDNAKDTLYLQMSSLKSEDTAVYYCAKDWGGPEPTRGQGTQVTVSSLINLEAAA[gap - human IgG1 Fc],,6.4 nM,317 nM,,72 nM,480 nM,552 nM,,> 1000 nM,> 1000 nM,,,,,,,20.2 nM,22.9 nM
MD2603 (Fc fusion) EVQLVESGGGLVQPGGSLRLSCAATGFTLENKAIGWFRQTPGSEREGVLCISKSGSWTYYTDSMRGRFTISRDNAENTVYLQMDSLKPEDTAVYYCATTTAGGGLCWDGTTFSRLASSWGQGTQVTVSSAAAGGGGSGGGGSGGGGSGGGGSGGGGSGGGGSGGGGSEVQLVESGGGLVQPGGSLRLSCAVSISIFDIYAMDWYRQAPGKQRDLVATSFRDGSTNYADSVKGRFTISRDNAKNTLYLQMNSLKPEDTAVYLCHVSLYRDPLGVAGGMGVYWGKGALVTVSSLINLEAAA[gap - human IgG1 Fc],,194 nM,202 nM,,634 nM,491 nM,> 1000 nM,,> 1000 nM,> 1000 nM,,,,,,,78.9 nM,53.9 nM
MD2604 (Fc fusion) EVQLVESGGGLVQPGGSLKLSCAASGFTFSTSWMYWLRQAPGKGLEWVSVINTDGGTYYADSVKDRFTISRDNAKDTLYLQMSSLKSEDTAVYYCAKDWGGPEPTRGQGTQVTVSSAAAGGGGSGGGGSGGGGSGGGGSGGGGSGGGGSGGGGSEVQLVESGGGLVQPGGSLRLSCAVSISIFDIYAMDWYRQAPGKQRDLVATSFRDGSTNYADSVKGRFTISRDNAKNTLYLQMNSLKPEDTAVYLCHVSLYRDPLGVAGGMGVYWGKGALVTVSSLINLEAAA[gap - human IgG1 Fc],,1.1 nM,126 nM,,272 nM,103 nM,685 nM,,> 1000 nM,> 1000 nM,,,,,,,34 nM,51.5 nM
